Reference: the supplement of paper PMC11417369
Some of the results follow.

test system: PfAP2-HC AP2 domain (GST-tagged); experiment: gcPBM binding intensity (ln(normalized median fluorescence intensity)); higher = stronger DNA binding
Procedure, shortened: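 For binding intensity, the highest Masliner-normalised natural-log median intensity across replicate spots of either probe orientation was taken. Protein bound to the array was stained with Alexa488 anti-GST antibody and scanned at 488 nm. The protein, GST-tagged P. falciparum DNA-binding domains from E. coli at about 25 μg on average, had been applied for 1 h to an Agilent 4 × 180k array of primer-extended double-stranded 36-bp intergenic genomic probes and negative controls.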

Sequence | gcPBM binding intensity (ln)
ATTTAGAAAAAATATACACACAGCCTAAACATGCAT [CACACA_site4067] | 10.1
AATATAAGCAAATACACACACACATATATATATATA [CACACA_site3805] | 10.7
TTATCCTATACAAGGGAAAAATAAAATAAAATAAAT [TGCATGCA_negctrl_site272] | 9.46
TAAAAAATATTATATACACACAGTATAAAAAAAAAT [CACACA_site4012] | 10
ATTGATTATTTTCTAGTGCATAAAATAATTTTTTTT | 9.46
AGTGTCATATAAAATTGTACTTTTTTTTTTTTCTTT [XGTACX_site5651] | 9.7
ATATACATATTATAATGTACATATTTTAATAACCTT [XGTACX_site7617] | 9.67
CAGACCTCTTTGTCATGTACATAAAAAAATAAAGAA [XGTACX_site7887] | 9.47
TATTTCTTTTGGTTGGTGCATAAAATAATACAATAT [GTGCAC_site9916] | 9.64
TATAAACAGACGAAAACACACATATGTAAATATATA [CACACA_site4428] | 9.89
TACAAAAAGTTATACACACACGTACCTATAAATAGA [CACACA_site6571] | 10
ATAAAAATAATATCATGTACATATGTGTATTGTATT [XGTACX_site1768] | 9.73
TATAAGAAAATAATGTGTACTAAATAATAAATGCAT [XGTACX_site1204] | 9.76
CCACATGAGATGATTACACACATATAAATATTTACA [CACACA_site6222] | 9.69
ATATATATTTAATTTACACACAAAAAAAATTGTTGG [CACACA_site961] | 9.64
ACTTTTTAATAATAATAATTATATATATATATATAT [TGCATGCA_negctrl_site459] | 9.66
ATAACATACATAACAACACACAATATTTATATGTAT [CACACA_site210] | 10.2
GAATGTATTCATAAATGTACTTATAATATTATAATA [XGTACX_site3466] | 9.47
ATAAATGAAGATAAATTAAAAAAAAAAAAAAAAAAA [CACACA_negctrl_site992] | 8.7

Sequence | gcPBM binding intensity (ln)
AATACATAAATATTTTGTACATATTATATAAAATAT [XGTACX_site1627] | 9.65
CGACTTTTAAAATATACACACATATATATATATATA [CACACA_site825] | 9.74
ATGAAAAAAAAAAAAAAAAAAAAAAAAAAAAAAAAA [CACACA_negctrl_site1405] | 8.84
CTTGTACCTAGAAATACACACAATTATATAACTTAT [CACACA_site2838] | 9.76
ATTTGCTTTTATTTTACACACTTGCTCCTGTTGTAC [CACACA_site1088] | 10.6
AAAAAAAAATATATTGCACACCTCTCAATAAAAAAA [CACACA_site172] | 9.8
TCCATTCTATTTTTTACACACGTATGTAAATATTAT [CACACA_site2686] | 9.86
CGCAACACTATTTGGGTGCTCTTCAAAAAAAAAAAA [GTGCAC_site9598] | 9.01
TTAAATACTTTTCGAAGTACATTATATATATAATAT [XGTACX_site7530] | 9.43
AGAATATATATAATAGTGCAATGTACAATGAACAAA [GTGCAC_site9577] | 9.86
ATTCTAATTACATATACACACAAAGGTTCATAACAA [CACACA_site3076] | 9.67
TATATAAATGTATACACACACATATAAATATAAATA [CACACA_site6751] | 10
TAACTACTAGAAAAAACACACAAAAAGTAAATATAT [CACACA_site2740] | 9.87
TTCCCATGTAATATTAAACACACACCCATATAACAC [CACACA_site7905] | 10.5
TAAAATATAAGACACACACACATATATTTATATATC [CACACA_site6248] | 10.5
TACCAAATCACCCCTTGTACCCATTTTAAAATTTTC [XGTACX_site396] | 9.86
TGTTTAACATTTATATGTACATATATTCACATATTA [XGTACX_site342] | 9.81
ATAAACAGATCATATACATGCATATATGTAGAATAA [TGCATGCA_site157] | 9.82
ATATAAAAAAGAGGGAGTACTTGTAACAAAATAATA [XGTACX_site8679] | 9.83

Sequence | gcPBM binding intensity (ln)
GTACAGATGTAGTATGCATGTAATTATATATAAATT [TGCATGCA_site292] | 9.76
ACGTAGTAGGTATTATGTACATATTTATAAGTATAA [XGTACX_site7336] | 9.72
ACATGTTCATAATTTTGTACATATTTTTATGAACAT [XGTACX_site3976] | 9.65
ACATACGAAAATTGGAAGGATAGATAAAAAGAAAAT [CACACA_negctrl_site51] | 9.66
AAAAAGCAGGATTATACACACAAATATTTATATGTT [CACACA_site6634] | 10
GCGTAGTTCGGAAGGGTGCTTTTTTGTTAATAAAAA [GTGCAC_site9592] | 9.42
TCTAAACAAATTAATAAAATAAGTATTCAAAATTAT [CACACA_negctrl_site731] | 9.29
GTAAAATTTCGGATTTGTACACATGGCTATGAAAAA [XGTACX_site939] | 9.66
AATATTTATTTTTTTGCACACATATTTTACATTTTA [CACACA_site3182] | 10.4
TTATGTTATAAATACACACACAAAAGAAAAAAAAAA [CACACA_site7414] | 10
TCCCATAATATTAGTAGTACTATTAATATTTTCAGG [XGTACX_site4925] | 9.35
ATTTCTTTTTTTTCTTGTACACATATTAAATTTATG [XGTACX_site734] | 10
TTCTCTATAAATGCTGCACACACATTTAATTATTTA [CACACA_site8828] | 10
TTACAAATATTATAAAGTACAAACCAGTAGATTTTG [XGTACX_site2272] | 9.63
TATTTTTTTTTTTTTTTTTTTACCTTTCCACTCAAA [CACACA_negctrl_site1454] | 9.21
TTTTTTTTTTTTAAAAGTACATAGTAGTAATTATAG [XGTACX_site4232] | 9.33
TCATTCTAAATATAAACACACATAAATATGTACATT [CACACA_site7555] | 9.76
CATAAAAATGGATACACACACATAATATATATATAT [CACACA_site3619] | 10.2
